Laboratory results: patent publication US20200031885A1 (published 2020)
Non-standard residues stand in square brackets, D forms with d. No end group written: not given here. pY = N[C@@H](Cc1ccc(OP(=O)(O)O)cc1)C(=O)O

Key:
Assay in all cases: affinity capture from mixture of 54 pTyr peptides, PRM-MS
[1] = target: T1, BLK (pTyr389) peptide IIDSEpYTAQEGAK
T1 peptide: IIDSE[pY]TAQEGAK

[2] = target: T2, HCK (pTyr411) peptide VIEDNEpYTAR
T2 peptide: VIEDNE[pY]TAR

[3] = target: T3, FER (pTyr714) peptide QEDGGVpYSSSGLK
T3 peptide: QEDGGV[pY]SSSGLK

[4] = target: T4, SRC (pTyr419) peptide LIEDNEpYTAR
T4 peptide: LIEDNE[pY]TAR

[5] = target: T5, EPHB4 (pTyr774) peptide FLEENSSDPTpYTSSLGGK
T5 peptide: FLEENSSDPT[pY]TSSLGGK

[6] = target: T6, EPHB3 (pTyr792) peptide FLEDDPSDPTpYTSSLGGK
T6 peptide: FLEDDPSDPT[pY]TSSLGGK

[7] = target: T7, MERTK (pTyr753/754) peptide IYSGDpYpYR
T7 peptide: IYSGD[pY][pY]R

[8] = target: T8, ERBB2 (pTyr877) peptide LLDIDETEpYHADGGK
T8 peptide: LLDIDETE[pY]HADGGK

[9] = target: T9, FES (pTyr713) peptide EEADGVpYAASGGLR
T9 peptide: EEADGV[pY]AASGGLR

[10] = target: T10, PGFRB (pTyr857) peptide DSNpYISK
T10 peptide: DSN[pY]ISK

[11] = target: T11, EPHB1 (pTyr778) peptide YLQDDTSDPTpYTSSLGGK
T11 peptide: YLQDDTSDPT[pY]TSSLGGK

[12] = target: T12, EPHA1 (pTyr781) peptide LLDDFDGTpYETQGGK
T12 peptide: LLDDFDGT[pY]ETQGGK

[13] = target: T13, INSRR (pTyr1145/1146) peptide DVYETDpYpYR
T13 peptide: DVYETD[pY][pY]R

[14] = target: T14, VGFR1 (pTyr1053) peptide NPDpYVR
T14 peptide: NPD[pY]VR

[15] = target: T15, LMTK2 (pTyr295) peptide EDpYIETDDK
T15 peptide: ED[pY]IETDDK

[16] = target: T16, EPHA3 (pTyr779) peptide VLEDDPEAApYTTR
T16 peptide: VLEDDPEAA[pY]TTR

[17] = target: T17, VGFR2 (pTyr1059) peptide DPDpYVR
T17 peptide: DPD[pY]VR

[18] = target: T18, JAK2 (pTyr221) peptide IQDpYHILTR
T18 peptide: IQD[pY]HILTR

[19] = target: T19, KIT (pTyr823) peptide NDSNpYVVK
T19 peptide: NDSN[pY]VVK

[20] = target: T20, TIE1 (pTyr1007) peptide GEEVpYVK
T20 peptide: GEEV[pY]VK

[21] = target: T21, ITK (pTyr512) peptide FVLDDQpYTSSTGTK
T21 peptide: FVLDDQ[pY]TSSTGTK

[22] = target: T22, RET (pTyr905) peptide DVYEEDSpYVK
T22 peptide: DVYEEDS[pY]VK

[23] = target: T23, GSK3 (pTyr279/216) peptide GEPNVSpYICSR
T23 peptide: GEPNVS[pY]ICSR

[24] = target: T24, PTK7 (pTyr960/961) peptide DVYNSEpYpYHFR
T24 peptide: DVYNSE[pY][pY]HFR

[25] = target: T25, TEC (pTyr519) peptide YVLDDQpYTSSSGAK
T25 peptide: YVLDDQ[pY]TSSSGAK

[26] = target: T26, SRMS (pTyr380) peptide DDIpYSPSSSSK
T26 peptide: DDI[pY]SPSSSSK

[27] = target: T27, BMX (pTyr566) peptide YVLDDQpYVSSVGTK
T27 peptide: YVLDDQ[pY]VSSVGTK

[28] = target: T28, TIE2 (pTyr992) peptide GQEVpYVK
T28 peptide: GQEV[pY]VK

[29] = target: T29, FRK (pTyr387) peptide VDNEDIpYESR
T29 peptide: VDNEDI[pY]ESR

[30] = target: T30, EPHA2 (pTyr772) peptide VLEDDPEATpYTTSGGK
T30 peptide: VLEDDPEAT[pY]TTSGGK

[31] = target: T31, EPHA8 (pTyr793) peptide VLEDDPDAApYTTTGGK
T31 peptide: VLEDDPDAA[pY]TTTGGK

B1: wild-type (wt) human Src SH2 domain expressed with His6 and GST tags (other)
chain: not shown
notes: also called wt SH2 domain; parent human Src SH2 domain
Does B1 bind [1]?
Result: no binding (tested: 10 nmole SH2 domain)

Does B1 bind [2]?
Result: no binding (tested: 10 nmole SH2 domain)

Does B1 bind [3]?
Result: no binding (tested: 10 nmole SH2 domain)

Does B1 bind [4]?
Result: no binding (tested: 10 nmole SH2 domain)

Does B1 bind [5]?
Result: no binding (tested: 10 nmole SH2 domain)

Does B1 bind [6]?
Result: no binding (tested: 10 nmole SH2 domain)

Does B1 bind [7]?
Result: no binding (tested: 10 nmole SH2 domain)

Does B1 bind [8]?
Result: no binding (tested: 10 nmole SH2 domain)

Does B1 bind [9]?
Result: no binding (tested: 10 nmole SH2 domain)

Does B1 bind [10]?
Result: no binding (tested: 10 nmole SH2 domain)

Does B1 bind [11]?
Result: no binding (tested: 10 nmole SH2 domain)

Does B1 bind [12]?
Result: no binding (tested: 10 nmole SH2 domain)

Does B1 bind [13]?
Result: no binding (tested: 10 nmole SH2 domain)

Does B1 bind [14]?
Result: no binding (tested: 10 nmole SH2 domain)

Does B1 bind [15]?
Result: no binding (tested: 10 nmole SH2 domain)

Does B1 bind [16]?
Result: no binding (tested: 10 nmole SH2 domain)

Does B1 bind [17]?
Result: no binding (tested: 10 nmole SH2 domain)

Does B1 bind [18]?
Result: no binding (tested: 10 nmole SH2 domain)

Does B1 bind [19]?
Result: no binding (tested: 10 nmole SH2 domain)

Does B1 bind [20]?
Result: no binding (tested: 10 nmole SH2 domain)

Does B1 bind [21]?
Result: no binding (tested: 10 nmole SH2 domain)

Does B1 bind [22]?
Result: no binding (tested: 10 nmole SH2 domain)

Does B1 bind [23]?
Result: no binding (tested: 10 nmole SH2 domain)

Does B1 bind [24]?
Result: no binding (tested: 10 nmole SH2 domain)

Does B1 bind [25]?
Result: no binding (tested: 10 nmole SH2 domain)

Does B1 bind [26]?
Result: no binding (tested: 10 nmole SH2 domain)

Does B1 bind [27]?
Result: no binding (tested: 10 nmole SH2 domain)

Does B1 bind [28]?
Result: no binding (tested: 10 nmole SH2 domain)

Does B1 bind [29]?
Result: no binding (tested: 10 nmole SH2 domain)

Does B1 bind [30]?
Result: no binding (tested: 10 nmole SH2 domain)

Does B1 bind [31]?
Result: no binding (tested: 10 nmole SH2 domain)
